# Results reported in ChEMBL document CHEMBL4888484, “Replenishing the malaria drug discovery pipeline: Screening and hit evaluation of the MMV Hit Generation Library 1 (HGL1) against asexual blood stage Plasmodium falciparum ,using a nano luciferase reporter read-out” (2022).
# Among all 150,000 compounds or so, about 540 (0.36%) showed an effect of 50% or more. The list shows a part of the results.
# Test system: Plasmodium falciparum
# Assay: Primary screen in NF54 nanoGlo assay, in single point, at 2uM, 72h; a lower Z score goes with more inhibition
# Type: functional, Erythrocyte
# Conditions: timepoint 72 hour
Compound,% Inhibition [%],Z score
C[C@H](O)CN(C)C(=O)NCCc1cc(F)c(F)c(F)c1,-9,0.88
O=C(c1cncc(-c2ccc3c(c2)OCO3)n1)N1CCOCC1,5,-1.02
CN(C)C(=O)C1CCC(CNC(=O)c2cc(Cl)c[nH]2)O1 (configuration not stated),-6,0.58
Cc1ccc(-n2cc(-c3noc(C(=O)Nc4cccc(Cl)c4)n3)nn2)cc1,-2,0.42
O=C(NCc1cnc2cnccn12)[C@H]1CC12CCCCC2,7,-1.36
CC1CC(C)CN(S(=O)(=O)N2CCCC(C(=O)NC3CCCCCCC3)C2)C1 (configuration not stated),-4,0.65
O=S1(=O)CCC2(CC1)C[C@@H]2c1nc(-c2cscn2)no1,3,-0.41
COc1ccc(C)cc1NC(=O)Cn1c(=O)cnc2cc(S(=O)(=O)N3CCCCC3)ccc21,-14,1.39
Nc1ccnc([C@@H]2CCCN2S(=O)(=O)Cc2ccccc2)n1,0,0.04
CC[C@@H]1C[C@H]1NC(=O)c1cnc(C2=NC(C)(C(C)C)C(=O)N2)c(O)c1 (some centres not stated),5,-0.69
CC(C)(C)c1cc(CN2c3cc(Cl)ccc3CS2(=O)=O)no1,8,-0.99
CCCN(CC(N)=O)c1nc(-c2ccc(C)cc2)no1,-8,1.09
Cc1cnccc1CN(C)Cc1cc(C(C)C)n[nH]1,-8,1.55
COc1cc2c(C(=O)N3CCCCC3)c(CN3CCCCC3)n(C)c2cc1Br,9,-1.46
Cc1c(CNCC2(N3CCCCC3)CCOCC2)cc(C#N)n1C,7,-1.06
CCOc1cc(C(=O)N[C@H](C#N)c2cnn(-c3ccccc3)c2)ccn1,-2,0.47
Cc1nc(CNc2cccc(CN3CCNC(=O)C3)c2)sc1C,-13,2.08
CN(C)c1ccc(NC(=O)C2CCC2)cc1CN(Cc1cccc(F)c1)C(=O)c1ccco1,-14,1.25
COc1cc(C(=O)N2CC[C@@]3(C2)NC(=O)NC3=O)ccc1C(F)(F)F,-2,0.2
O=C1NC(c2nc(-c3ccccc3)cs2)N2CCCCC12 (configuration not stated),0,0
CC1CCC(C(C)C)c2nn(C(=O)C(C)C(c3ccccc3)c3ccccc3)c(-c3ccccc3)c21 (configuration not stated),9,-1

Compound,% Inhibition [%],Z score
Cc1c[nH]c(CN(C)CCC(=O)Nc2ccsc2C(=O)O)n1,-12,1.53
CC(=O)Nc1ccc(N2C(=O)[C@@H]3C(Cc4c[nH]c5ccccc45)NC4(C(=O)Nc5c(C)cc(Cl)cc54)[C@@H]3C2=O)cc1 (some centres not stated),-2,0.28
CN(C)c1ccc(NC(=O)CCc2ccsc2)cn1,-8,1.18
CC(=O)N[C@H](C)C(=O)N[C@H](CCC(=O)OCc1ccccc1)C(=O)OCc1ccccc1,-5,0.58
Cc1ccc([C@H]2c3cc(OCc4nc(C(=O)N5CCCC5)co4)ccc3CCN2C(=O)C2CCCC2)cc1,-10,1.55
Cc1cc(N2C[C@H](CN)C3(CCOCC3)C2)c2ccc(F)c(F)c2n1,-2,0.31
O=C(Nc1ccc2ccccc2c1)c1cc2c(s1)CCC2,3,-0.34
CC(=O)Nc1cccc(NC(=O)C[C@@H]2NC(=O)N(Cc3ccccc3Cl)C2=O)c1,11,-1.47
Fc1ccc(CCn2nnnc2N2CCCOCC2)cc1,3,-0.54
CC[C@H]1C(=O)N(C)CCN1c1ccc(-c2nc(C(C)C)no2)cn1,-10,1.21
C[C@@H](c1nccs1)N1C(=O)c2cccc(N3CCN(CCCc4ccccc4)CC3)c2C1=O,-4,0.62
CCn1cc(S(=O)(=O)N2CC(N(CCOC)CCOC)C2)cn1,-2,0.23
CCC(NC(=O)N1CCCC(c2nn(-c3ccccc3)cc2C(N)=O)C1)C1CC1 (configuration not stated),-7,1.28
Cc1ncc2c(c1-c1noc(-c3c[nH]c(-c4ccccc4)n3)n1)CCNC2,-1,0.18
Cn1nc(C2CC2)cc1NC(=O)NCCN1CCNC1=O,-18,2.86
Cc1csc(CNC(=O)Nc2cccc3c2OC(C)(C)C3)n1,1,-0.12
Cc1ccc2[nH]c(-c3ccccc3NC(=O)c3cccs3)nc2c1,-3,0.64
CNc1nc(C(=O)N2CCCN(CC3CC3)[C@H](C(C)C)C2)cs1,-8,1.47
O=C(CN1CCN(Cc2nc(-c3ccccc3)co2)CC1)NCC1CCC1,4,-0.52
Cn1cc([C@H](CO)NCC23CCC(CC2)C3)cn1,-5,0.83
